Data reported in the supplement of paper PMC5499739.
The full ranking holds about 16,000 sequences; the median of “Z-score” is about -0.37, and the highest 2% start at about 3.2. The list shows a part of the results.

test system: RBM10 RRM1-ZnF (GST-tagged construct); assay: RNAcompete 7-mer binding Z-score; higher = stronger binding preference
Method in brief: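 Bound RNA was identified by microarray hybridisation after GST-tagged RBM10 constructs (20 pmol) had been mixed with 1.5 nmol of a designed pool of 241 399 RNAs up to 41 nt, transcribed from microarray-derived DNA templates. Binding ran for 30 min at 4°C in 1 ml Hepes pH 7.8 buffer with KCl, NaCl, glycerol, DTT, BSA and glutathione Sepharose beads, with four 2-min washes at 4°C afterwards. For every heptamer motif, a one-sided Z-score for enrichment was computed across the probes that contained it.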

Row | Sequence | RNAcompete 7-mer binding Z-score
1 | AGAUACC | -0.873
2 | GUGUGCC | -0.0382
3 | GGACGGU | 2.29
4 | UUCCUAU | -0.873
5 | CAUCCAA | -0.759
6 | UGUUAAA | -0.532
7 | UGAUCCU | -0.743
8 | GGUUAGG | 4.59
9 | UAUUUUG | -0.733
10 | AGAACGA | -0.288
11 | GAAGCUU | -0.578
12 | GCCGGAA | 0.332
13 | UAGGCAG | 1.17
14 | CCUGGAA | -0.522
15 | AUUCGGG | 0.966
16 | CCCCGGA | -0.0837
17 | GUGGAAG | 3.83
18 | CCAACCC | -0.61
19 | CAAGCAG | -0.0122
20 | UCUUAUA | -0.821
21 | UCCCCAC | -0.402
22 | AGCGGCC | -0.305
23 | AUCCUUG | -0.772

Row | Sequence | RNAcompete 7-mer binding Z-score
24 | CUCCACU | -0.785
25 | GAAAAUA | -0.0674
26 | GACAUCU | -0.662
27 | UGCGCGG | 0.621
28 | GUUGUCU | -0.597
29 | GAGAAAG | 1.53
30 | UCCGGAC | -0.539
31 | AGAAGGC | 0.699
32 | ACUAUUC | -0.847
33 | CGAGAAU | -0.0674
34 | AUCUAGG | 0.179
35 | UGCUUAC | -0.766
36 | GGCCCUG | -0.269
37 | AGAGUGU | 0.638
38 | GACAUUA | -0.337
39 | GUCCCAU | -0.591
40 | CGACACG | -0.0739
41 | GGAGGCC | 0.953
42 | UAAAUUG | -0.305
43 | ACCCCCU | -0.542
44 | AUGUUUC | -0.477
45 | GCGUACU | -0.331
46 | CCCCCAC | -0.214

Row | Sequence | RNAcompete 7-mer binding Z-score
47 | AGUACUU | -0.636
48 | CGGCGGU | 0.69
49 | CUUACUC | -0.815
50 | ACAGGCC | -0.0512
51 | CCACCCG | -0.389
52 | GCGAAGG | 2.06
53 | GCACUAG | -0.0155
54 | CCCAGAU | -0.756
55 | AGCAGAC | 0.0398
56 | GGGGUUU | 3.16
57 | AGUUAAU | -0.236
58 | GUCUGGA | -0.035
59 | GAUCUGU | -0.506
60 | GAGGCAG | 1.12
61 | UCUACAG | -0.665
62 | CGUUUCU | -0.818
63 | GGCGGUC | 0.657
64 | CAGUGGU | 0.787
65 | GAGGAUA | 2.15
66 | AAUUUAU | -0.49
67 | GACCAUC | -0.867
68 | UCAAAUG | -0.373
69 | AUUUGGC | -0.457

Row | Sequence | RNAcompete 7-mer binding Z-score
70 | CGAAGUG | 0.722
71 | GCUCUAC | -0.707
72 | AUGGCAU | 0.514
73 | GGUCAAG | 1.18
74 | AGAACAA | -0.136
75 | UGUGAUG | 0.339
76 | AGGCGCC | -0.366
77 | AGAGGGU | 2.22
78 | UGAGGAA | 1.63
79 | CUGUAUU | -0.746
80 | AAACGAC | -0.487
81 | CCAGGCU | -0.607
82 | GAUGCUG | 0.196
83 | CAAAUGC | -0.73
84 | GUGUGUC | 0.137
85 | CGACAAA | -0.483
86 | CCAAUAU | -0.714
87 | UGUCUCG | -0.649
88 | CGGUAGG | 1.82
89 | CCUUCCA | -0.717
90 | UGCCUCA | -0.808
91 | AUUUGGG | 1.65
92 | UGCGCAU | -0.285

Row | Sequence | RNAcompete 7-mer binding Z-score
93 | GGGUUUU | 2.53
94 | GUUCCGC | -0.568
95 | GGAGCUC | 0.15
96 | AGGAGCA | 1.5
97 | GAGAUGC | 0.235
98 | AGAUAUA | -0.181
99 | AUCGGAA | 0.196
100 | AUACGCU | -0.581
101 | CUUGAUU | -0.75
102 | CACAACA | -0.363
103 | GAAACUG | -0.126
104 | CAAGUGA | 0.0333
105 | UCCCCCA | -0.389
106 | CCGUCCA | -0.633
107 | AUCAUGG | 0.586
108 | GGCUUAA | -0.0122
109 | GCGUCGG | 0.703
110 | UUAGGUC | -0.158
111 | CUCCUGA | -0.756
112 | CGCUGGA | 0.00729
113 | GGACUUC | -0.0999
114 | UGGGUCC | 1.1
115 | AUCCUGG | -0.571

Row | Sequence | RNAcompete 7-mer binding Z-score
116 | AUGUCUU | -0.789
117 | GUCGGAC | 0.108
118 | CGUCGCG | -0.0837
119 | CACCAGA | -0.558
120 | GGCCCCA | -0.457
121 | CGGAUGU | 1.04
122 | UAUCUUA | -0.756
123 | CUACCAA | -0.642
124 | CGACUAA | -0.672
125 | GUGUGGU | 2.39
126 | GUAGAUA | 0.384
127 | AGAUGAG | 1.43
128 | UCCACUA | -0.704
129 | AGCACGA | 0.0365
130 | UAGCCAC | -0.441
131 | GGCUCCA | -0.366
132 | GUCUACU | -0.649
133 | ACAGGGG | 3.33
134 | CAGCUCA | -0.837
135 | GGCACGC | 0.316
136 | GGUAGUC | 1.25
137 | AACAAGC | -0.331
138 | CACCAAC | -0.714

Row | Sequence | RNAcompete 7-mer binding Z-score
139 | GUGUUAU | -0.0512
140 | GGCCAAG | 0.0495
141 | ACAGAAC | -0.396
142 | UAAUACA | -0.373
143 | CAGAGAC | -0.136
144 | AUUGUCG | -0.34
145 | GAUUAUC | -0.5
146 | GGUCAUA | 0.199
147 | UUUAACG | -0.594
148 | GGAUCAA | 0.677
149 | AGCCAUA | -0.646
150 | UUACCUA | -0.772
151 | UCCAAGG | -0.0999
152 | AUCAUUU | -0.863
153 | CUCGCGG | 0.0138
154 | UGUCAUC | -0.571
155 | CGUCUUC | -0.815
156 | UGUUGCU | -0.633
157 | AGAAUCG | -0.129
158 | UAUUAAG | -0.425
159 | GCUGGGU | 2.3
160 | GCCUACU | -0.902
161 | ACAAACG | -0.149

Row | Sequence | RNAcompete 7-mer binding Z-score
162 | UAGGGUA | 3.47
163 | GGAGGUG | 3.72
164 | AUGUAGA | 0.521
165 | CCGUCAU | -0.659
166 | GCAAUUU | -0.633
167 | GUGUAAG | 1.19
168 | GCUGUAG | 0.0333
169 | CACCCGG | -0.227
170 | UCCGGAG | -0.0447
171 | CUGGCGC | -0.0902
172 | AUUAUGA | -0.106
173 | CAGAACC | -0.578
174 | UGUUCAA | -0.604
175 | GCGUUGC | -0.22
176 | GCCUUCG | -0.772
177 | CGUUGCU | -0.552
178 | UGUUGUU | -0.113
179 | CUCUAGC | -0.802
180 | UGAUACC | -0.318
181 | UCCAUAU | -0.688
182 | AUCCAGU | -0.626
183 | CACGCCC | -0.516
184 | CAUUAUC | -0.753
